Experimental data published in the supplement of paper PMC4604168 (melanoma cell lines).
The other results are listed elsewhere or left out. Single values are uncertain, as repeats are few or missing.

system: WM451Lu; assay: cell count relative to DMSO control; melanoma cells; higher = more viable cells; conditions: library dose: standard library concentration; 72 h
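Further: cells treated in 1,536-well plates, then fixed and DAPI-stained, with nuclei counted from automated high-throughput microscope images.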

SMILES | cell count [%]
Cn1cnc2c(F)c(Nc3ccc(Br)cc3Cl)c(C(=O)NOCCO)cc21 [selumetinib] + Cc1cc(N2CCOCC2)cc2[nH]c(-c3c(NC[C@@H](O)c4cccc(Cl)c4)cc[nH]c3=O)nc12 [BMS536924] (first compound 0.075 µM, partner dose 1 µM) | 53.7
C[C@]1(O)C[C@@H](c2nc(-c3ccc4ccc(-c5ccccc5)nc4c3)c3c(N)nccn32)C1 + O=C(O)c1ccc(-c2c[nH]c3ncc(-c4ccccc4)cc23)cc1C1CCCC1 [GSK650394] (first compound 2 µM, partner dose 0.8 µM) | 103
C[C@]1(O)C[C@@H](c2nc(-c3ccc4ccc(-c5ccccc5)nc4c3)c3c(N)nccn32)C1 + COc1cc2c(Oc3ccc4[nH]c(C)cc4c3F)ncnc2cc1OCCCN1CCCC1 [cediranib] (first compound 2 µM, partner dose 2 µM) | 124
COc1cc([C@@H]2c3cc4c(cc3[C@@H](O[C@@H]3O[C@@H]5CO[C@@H](C)O[C@H]5[C@H](O)[C@H]3O)[C@H]3COC(=O)[C@H]23)OCO4)cc(OC)c1O [etoposide] + CN(C)S(=O)(=O)c1ccc2c(c1)/C(=C/c1cc3c([nH]1)CCCC3)C(=O)N2 [SU6656] (first compound 0.1 µM, partner dose 2 µM) | 133
CCN(CC)CCNC(=O)c1c(C)[nH]c(/C=C2\C(=O)Nc3ccc(F)cc32)c1C [sunitinib] + NCC(=O)Nc1ccc(-n2nc(C(F)(F)F)cc2-c2ccc3c(ccc4ccccc43)c2)cc1 [OSU03012] (first compound 2 µM, partner dose 5 µM) | 68.7
